From patent US20160082079A1 come the findings set out here.

“And” between values parts separate entries of the source, which are not always exact repeats. Equal entries are not always repeated.

B1: FZD8-Fc variant 54F15 (Fc fusion)
chain: ASAKELACQEITVPLCKGIGYNYTYMPNQFNHDTQDEAGLEVHQFWPLVEIQCSPDLKFFLCSMYTPICLEDYKKPLPPCRSVCERAKAGCAPLMRQYGFAWPDRMRCDRLPEQGNPDTLCMDYNRTDLTTAAP[omitted - human IgG1 Fc]
B2: FZD8-Fc variant 54F16 (Fc fusion)
chain: ASAKELACQEITVPLCKGIGYNYTYMPNQFNHDTQDEAGLEVHQFWPLVEIQCSPDLKFFLCSMYTPICLEDYKKPLPPCRSVCERAKAGCAPLMRQYGFAWPDRMRCDRLPEQGNPDTLCMDYNRTDL[omitted - human IgG1 Fc with C220S (EU numbers) and a few adjoining residues]
B3: FZD8-Fc variant 54F09 (Fc fusion)
chain: ASAKELACQEITVPLCKGIGYNYTYMPNQFNHDTQDEAGLEVHQFWPLVEIQCSPDLKFFLCSMYTPICLEDYKKPLPPCRSVCERAKAGCAPLMRQYGFAWPDRMRCDRLPEQGNPDTLCMDYNRTDLTTAAPSPP[omitted - human IgG1 Fc]

For the test, the target named is Wnt3a. As to the kind of experiment: cell-based or functional assay.
Regarding B1, the % Relative Activity (blocking of Wnt3a-induced TCF luciferase reporter in STF293 cells, relative to a reference standard set at 100%) is 128%.

B2 had a % Relative Activity (blocking of Wnt3a-induced TCF luciferase reporter in STF293 cells, relative to a reference standard set at 100%) of 125%. With B3 the figure was 156% and 157%.
